The values below come from ChEMBL document CHEMBL4888484, “Replenishing the malaria drug discovery pipeline: Screening and hit evaluation of the MMV Hit Generation Library 1 (HGL1) against asexual blood stage Plasmodium falciparum ,using a nano luciferase reporter read-out” (2022).

Structures are written as SMILES. About 540 (0.36%) of roughly 150,000 compounds showed an effect of 50% or more. Some of the results follow.

This assay concerns Plasmodium falciparum. The assay can be described thus: Primary screen in NF54 nanoGlo assay, in single point, at 2uM, 72h; a lower Z score goes with more inhibition. It counts as functional, Erythrocyte. To be noted: timepoint 72 hour.
For `CCC[C@]1(CO)CCCN(C(=O)c2c[nH]c(=O)[nH]c2=O)C1`, the “% Inhibition” value amounted to 3% and the Z score is -0.42.

On to `CCCS(=O)(=O)N1Cc2c(-c3nc(C)no3)nn(C)c2C1`, for which the “% Inhibition” value is given as -2% and the Z score is 0.24.

Consider `O=C(N1CCOCC1)N1CCC[C@H]1c1ccc2c(c1)OCCO2`, for which the “% Inhibition” value came to 3% and the Z score is on record as -0.31.

Turning to `Cc1cccnc1CNS(=O)(=O)c1cccc(C(=O)N2CCNCC2)c1`, the “% Inhibition” value is given as -13% and the Z score came out at 1.46.

In the case of `CCOC(=O)C1(C(=O)Nc2cccc(C)c2)CCC1`, the “% Inhibition” value is recorded as -11% and the Z score stood at 1.41.

As to `CCC(Oc1ccc2c(c1)C(c1ccc(F)cc1)N(C(=O)C1CCCC1)CC2)C(=O)NC(C)C` (configuration not stated), the “% Inhibition” value is -4% and the Z score stood at 0.76.

Consider `COCCc1noc(CCn2c(C)cc(O)cc2=O)n1`, for which the “% Inhibition” value was -7% and the Z score was 1.07.

Turning to `CC1(C)C(CNC(=O)CCn2cc(C(N)=O)c(=O)[nH]c2=O)C1(C)C`, the “% Inhibition” value was found to be 19% and the Z score is -2.23.

In the case of `Cc1n[nH]c(C)c1CN1CCC[C@H](N(C)C)CC1`, the “% Inhibition” value is -9% and the Z score is listed as 1.16.

As for `O=C1N(Cc2ccccc2)c2cccc3cccc(c23)N1Cc1ccccc1`, the “% Inhibition” value was found to be 8% and the Z score was -1.58.

In the case of `COCC(=O)Nc1cc(C(=O)N(C)Cc2ccc(F)cc2)c2c(c1)ncn2CCc1ccccc1`, the “% Inhibition” value was -11% and the Z score worked out at 1.62.

Take `COCCC1(CNC(=O)N[C@@H](C)c2nc(C)cs2)CCCC1`: the “% Inhibition” value is given as -4% and the Z score is reported as 0.46.

On to `OC1(c2ncc(Br)s2)CCC1`, for which the “% Inhibition” value is -17% and the Z score came out at 2.46.

As for `Cc1ccc2cc1Oc1cccc(c1)CO[C@H]1CN(C(=O)CN3CCCN(C)CC3)C[C@@H]1NC(=O)CN(C)C2=O`, the “% Inhibition” value is recorded as -21% and the Z score came to 2.7.

For `COc1ccc([C@@]2(CC(=O)N3CCNC(=O)CC3)CC(=O)N(C3CCCC3)C2=O)cc1`, the “% Inhibition” value is given as -3% and the Z score came out at 0.6.

Consider `CN1CCN([C@H]2CCN(C(=O)CCc3ccccc3)C[C@H]2CCCO)CC1`, for which the “% Inhibition” value amounted to 1% and the Z score is reported as -0.13.

As to `Cc1cc(Oc2ncccc2C#N)ccc1NC(=O)c1cn(C)cn1`, the “% Inhibition” value came to 22% and the Z score is given as -2.55.

On to `CC(=O)Nc1ccc(NC(=O)c2ccc(S(=O)(=O)N3CCCCCC3)s2)cc1`, for which the “% Inhibition” value is reported as -16% and the Z score came out at 2.15.

Take `O=C(Cn1cncc(C(=O)NC2CCCC2)c1=O)Nc1ccc2c(c1)OCCO2`: the “% Inhibition” value was 11% and the Z score is on record as -1.82.

On to `NC(=O)c1csc(C(=O)N2C[C@H](c3ccccc3)c3ccccc32)c1`, for which the “% Inhibition” value is -6% and the Z score was found to be 0.9.

As for `C[C@@H](CC(C)(C)N1CCOCC1)OC(=O)C(C)(C)C`, the “% Inhibition” value is given as -8% and the Z score is reported as 1.58.

For `C[C@H]1CCCCN1C1CN(Cc2cnc(N3CCCC3)s2)C1`, the “% Inhibition” value amounted to 14% and the Z score was -1.81.

`CS(=O)(=O)N1CCC(CS(=O)(=O)Nc2cccc(F)c2)CC1`: the “% Inhibition” value turned out to be 15% and the Z score is -1.83.

Regarding `CN(C)c1ccc(S(=O)(=O)NC[C@@H]2CCN(C)[C@H]2c2cccnc2)cn1`, the “% Inhibition” value was -1% and the Z score amounted to 0.25.

On to `O=C(NC[C@H]1CCN(C/C=C/c2ccccc2)C1)c1cncs1`, for which the “% Inhibition” value is reported as -2% and the Z score stood at 0.28.

For the molecule `O=C(N[C@H]1CC[C@@H](CO)CC1)c1cccc(NCc2ccccn2)c1`, the “% Inhibition” value is on record as -25% and the Z score was 3.84.

As for `COCCC(C)(C)C(=O)N[C@@H]1C[C@H]1c1cc(F)c(F)c(F)c1`, the “% Inhibition” value is given as 1% and the Z score is listed as -0.08.

Consider `CCO[C@@H](CC)CNC(=O)N(C)CCn1ccnc1`, for which the “% Inhibition” value is reported as -8% and the Z score is given as 1.19.

With `Cc1csc(NC(=O)[C@H]2CCCN(S(=O)(=O)c3c(C)[nH]c(=O)[nH]c3=O)C2)n1`, the “% Inhibition” value is reported as -1% and the Z score was 0.13.

As to `NC(=O)c1cn(CC(=O)N2C[C@H]3C[C@H](O)[C@H](O)C[C@H]3C2)c2ccccc12`, the “% Inhibition” value is -16% and the Z score is on record as 1.51.

As to `COc1ccc(-c2c[nH]c(C(=O)N3CCCCC3)c2)c(OC)n1`, the “% Inhibition” value is given as -23% and the Z score was determined as 3.49.

As to `Cc1cc(C)nc(Cn2ccnc2-c2cc3c(cc2C)OCCO3)n1`, the “% Inhibition” value was 8% and the Z score is -1.35.

For the molecule `CCCNS(=O)(=O)c1cc(-c2c(CC)noc2NC(C)=O)ccc1OC`, the “% Inhibition” value was -5% and the Z score is on record as 0.96.

Consider `O=C(N[C@H]1CCOC1)c1cccc(S(=O)(=O)NCC(=O)N2CCCC2)c1`, for which the “% Inhibition” value is recorded as -6% and the Z score is reported as 1.14.

Take `Fc1ccccc1CN1CC[C@@H]2CN(Cc3ccc4[nH]ccc4c3)C[C@@H]21`: the “% Inhibition” value is listed as 6% and the Z score is recorded as -1.03.

`O=C(Nc1ccccc1)C(=O)N1C[C@@H](F)C[C@H]1CNC(=O)c1ccncc1`: the “% Inhibition” value is -11% and the Z score is listed as 1.3.

Take `Cc1cc(C)cc(-n2nc(C(=O)NCc3cccnc3)c(=O)n(Cc3ccc(F)cc3)c2=O)c1`: the “% Inhibition” value is -2% and the Z score was 0.21.

As for `CC(C)OCCS(=O)(=O)N1CCCc2sccc2C1`, the “% Inhibition” value was -14% and the Z score was found to be 1.27.

As for `O=C(NC1CCCC1)c1cccnc1Oc1cccc(NS(=O)(=O)c2ccccc2)c1`, the “% Inhibition” value is -11% and the Z score is on record as 1.63.

As to `CCc1csc(CC2CCN(Cc3cc(C(=O)O)ccc3Cl)CC2)n1`, the “% Inhibition” value was -9% and the Z score is 1.42.

As for `COc1cc(=O)n2c(c1C(=O)N[C@H]1CCCc3ccccc31)CCC2`, the “% Inhibition” value is reported as -9% and the Z score stood at 1.05.

As a reminder, the % Inhibition is the relative decrease from the control value, in per cent.
